From paper PMC6295060, “C-Src confers resistance to mitotic stress through inhibition DMAP1/Bub3 complex formation in pancreatic cancer” (Molecular Cancer, 2018)

Target: T1, GST-DMAP1 (UniProt Q9NPF5)
T1 construct: DMAP1, recombinant; also called recombinant GST-DMAP1; purified DMAP1; source: expressed in bacteria and purified
Assay: pull-down; purified GST-DMAP1 mixed with purified His-Bub3 (WT or mutant) immobilised on agarose beads, with or without purified p38, with or without c-Src; called GST pull down
Settings: both partners purified

binding result: binds
B1: His-Bub3 S211D (natural protein)
chain: not shown
notes: Bub3, recombinant, Ser211 to aspartate (phospho-mimic); also called phosphor-mimic mutant His-Bub3 S211D; source: expressed in bacteria and purified
